# Measured values: PubChem BioAssay AID2202238 (Ras Initiative Chemistry Research Team, Frederick National …, 2025)
# The list shows a part of the results. The main result of the screen is listed elsewhere. These columns were measured beside it and carry no call.
# Target: GTPase KRas (Homo sapiens) (UniProt P01116)
# Experiment: Cysteine mutants labelled by reactive fragments (mass read-out) (AID 2202238)
# Parameters: protein at 5 µM with 500 µM competing thiol for 1.5 h
# Conditions: KRAS G12D cysteine mutants, disulfide tethering, MALDI-TOF labeling, stronger effect = higher value, fragment at 500 µM
# [1] = measured here: G60C mutant labeling
# [2] = measured here: G75C mutant labeling
# [3] = measured here: H94C mutant labeling
# [4] = measured here: I36C mutant labeling
# [5] = measured here: L120C mutant labeling
# [6] = measured here: M67C mutant labeling
# [7] = measured here: M72C mutant labeling
# [8] = measured here: N26C mutant labeling
# [9] = measured here: N86C mutant labeling
# [10] = measured here: P121C mutant labeling
# [11] = measured here: S122C mutant labeling
# [12] = measured here: S136C mutant labeling
# Sequence of UniProt P01116 (P01116 whole entry, looked up, the tested form may be a part): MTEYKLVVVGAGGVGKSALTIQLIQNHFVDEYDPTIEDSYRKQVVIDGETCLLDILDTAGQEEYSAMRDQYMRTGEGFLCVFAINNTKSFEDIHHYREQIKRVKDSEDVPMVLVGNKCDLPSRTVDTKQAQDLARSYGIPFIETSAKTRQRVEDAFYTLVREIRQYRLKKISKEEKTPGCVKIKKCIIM
SMILES,percent labeling [1] [%],percent labeling [2] [%],percent labeling [3] [%],percent labeling [4] [%],percent labeling [5] [%],percent labeling [6] [%],percent labeling [7] [%],percent labeling [8] [%],percent labeling [9] [%],percent labeling [10] [%],percent labeling [11] [%],percent labeling [12] [%]
O=C(Cn1cnc2sc(-c3ccccc3)cc2c1=O)NCCS,3.6,0,0,4.9,10.5,5.3,4.2,7.7,3.4,0,0,3.2
Cc1[nH]ncc1C(=O)NCCS,25,13.5,27.9,21.9,32.7,26.8,29.4,33.5,24.8,25.7,27.4,34.5
O=C(CCS)NCc1nocc1-c1ccc(Cl)cc1,,18.7,65.1,43.6,23.9,36.9,55.6,,25.7,29.5,24.9,50
Cc1nnc2ccc(C(=O)NCCS)cc2c1C,14.2,6.4,5.9,3.9,16.3,10.9,7.8,32.8,4,3.6,4.8,18.8
O=C(NCCS)[C@@H]1OCCC[C@@H]1c1ccccc1,47.2,14.8,28.8,20.6,32.5,21.1,34.7,32.2,19.1,24.9,22.4,42.9
CCn1c(=O)[nH]c2cc(C(=O)NCCS)ccc21,30.4,27,31.2,26.5,31.7,31.9,54.3,54.8,26.9,25.7,25.1,45.5
O=C(COc1ccc(Br)cc1Cl)NCCS,49.5,17.5,16.5,9.6,13.6,9.7,13.5,28,10.1,14.1,6.3,12.5
CC(=O)NCc1ccc(C(=O)NCCS)s1,37.5,15.1,33.3,23.8,39.5,29.7,28.4,42.9,31.8,28.1,33.3,42.6
Cc1ccc(C(=O)NC(CC(=O)NCCS)c2ccccc2)cc1 (configuration not stated),18.8,11,9.1,11.5,10.2,11.2,11.5,15.5,3.7,11.5,5.7,13.3
O=C(CCNC(=O)c1c[nH]c2ccccc12)NCCS,49.7,22.6,42.3,32.5,41.2,69.6,38,42.7,29.4,40.6,35.3,43.1
O=C(COc1ccc2oc3c(c2c1)CCCC3)NCCS,33.5,17.7,17.3,10.2,16,12,29.6,22.9,12.4,12.9,8.6,11.8
CN(C(=O)CCS)C1c2cc(Cl)cc(Cl)c2CC1O (configuration not stated),,29.8,22.9,24.5,17.1,23.6,33.7,,22,22.9,16.5,32.3
O=C(Cc1ccc(F)c(Cl)c1)NCCS,56.2,21.3,30.8,28.2,33.8,29.8,38.6,37.5,21.6,28.7,21.7,39.5
O=C(CCS)NCC1(COc2ccc(Br)cc2)COC1,,13.2,12.3,0,13.8,33.2,33.3,,8.8,2.9,16.3,4.8
CC(C(=O)NCCS)c1ccc(Br)cc1 (configuration not stated),55.5,22.4,29.9,17.9,57.4,22.4,42.6,38.9,20.7,25.4,19,36.3
Cc1cc(OCC(=O)NCCS)cc(C)c1Cl,35.1,15.1,13,9.2,14.6,9.5,34.6,25.5,11.8,11.9,9.7,14.5
CN(C)Cc1ccoc1-c1n[nH]c(CNC(=O)CCS)n1,,6.7,25.6,41.9,27.3,38.6,13.8,,16.2,28.3,26.2,40.9
O=C(CCS)NC1CCN(c2ccn[nH]2)C1=O (configuration not stated),,16.6,25.7,37.2,43.6,32.1,18.3,,40.6,36.2,38.2,54.8
Cc1cc(=O)c(OCc2ccccc2)c(CNC(=O)CCS)n1C,,12.9,29.2,32,21.6,35.6,18,,9.9,25.2,27.2,59.2
Cc1sc(C(N)=O)cc1NC(=O)CCS,,21.3,42.7,43.9,32.7,36,41,,43.8,32,43.7,52
O=C(CCS)Nc1cccc(-c2cccnc2)c1,,18.9,26.3,30.6,23.5,18.6,49.1,,16.3,17.5,15.8,40.8
O=C(CCS)NC1(c2ccc(F)cc2F)CCCCC1,,12.7,26.5,29,21.5,23.3,48,,19.5,23.5,20.2,41.3
Cc1ccc(NC(=O)CCS)cc1Oc1ccc(Cl)cc1,,13.3,36.3,31.2,20.5,24.1,36,,23.6,19.3,10.3,37.9
Cc1cccc(=O)n1CC(C)(O)C(=O)NCCS (configuration not stated),27.4,10.4,29.6,20.3,26.3,31.7,11,32.1,19.7,29.6,28.5,37.1
O=C(CCS)N1CCC(O)(C2CCCCC2)CC1,,23.7,37.1,32.1,37.8,50.3,44.6,,29.3,38.8,40.4,65.7
Cc1ccc(C2=CCN(C(=O)CCS)CC2)cc1,,4.8,9.2,0,3.3,2.7,6.3,,2.6,3.5,8,4.7
O=C(NCCS)c1cnnn1-c1ccccc1Br,49.8,18.6,30.3,24,26.8,28.6,57.6,33.4,20.3,22.6,19.3,40.3
O=C(CCS)N1CCC(Cn2cc(Br)cn2)CC1,,16.1,38.9,38.7,30.1,46.6,27.5,,25.9,36.1,28.8,60.2
COC(=O)c1cn(C2CCCN(C(=O)CCS)C2)nn1 (configuration not stated),,11.9,36.7,43.1,29.9,46,23,,35.7,35.9,29.2,57.1
O=C(NCCS)c1cnc(-c2ccc(C(F)(F)F)cc2)[nH]1,20.5,11.8,15.1,11,14.3,10.4,32.7,34.2,13.3,11.3,7.3,16.8
